Laboratory results taken from PubChem BioAssay AID493208 (National Center for Advancing Translational Sciences (NCATS), 2011).
Out of some 44,000 compounds screened, about 340 (0.77%) were called active. Another 5% or so got no clear call; they are omitted. The call rests on the fitted dose curve; in most records, active means well fitted inhibition curve with a large enough effect; inconclusive means small, poorly fitted or top-dose-only effect; inactive means flat fitted curve, though single readings scatter. The list shows a part of the results.

Assay: Acumen qHTS Assay for Inhibitors of the mTORC1 Signaling Pathway in MEF (Tsc2-/-, p53-/-) Cells: Sytravon;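 further: plate controls were DMSO for no effect and rapamycin for full effect; nearly all actives have a fitted effect of over 50% in size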
Conditions: phospho-rpS6 immunofluorescence/PI, 24 h; series mostly up to 38.3 µM; activity change, negative = inhibition: at the top concentration
Method in brief: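 Tsc2-/-, p53-/- mouse embryonic fibroblasts (empty-vector line) exposed to compound 24 hrs at 37 C, fixed, immunostained for phospho-rpS6 and counterstained with propidium iodide. Acumen laser scanning gives % positive cells from Alexa 488/PI ratio, thresholded using 7.5 nM rapamycin; PI count gives viability.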

Activity change, negative = inhibition, inactive:
Cc1sc2ncn(CC(=O)N3CCN(c4ccc(F)cc4)CC3)c(=O)c2c1S(=O)(=O)N1CCN(c2ncccn2)CC1 0.0376%
Cc1cc2[nH]c(=O)c(=O)[nH]c2cc1S(=O)(=O)Nc1cccc(C(F)(F)F)c1 1.81%
COc1cccc(CNC(=O)CCS(=O)(=O)c2ccc3c(c2)CC(C)N3C(=O)C2CC2)c1 (stereo not drawn) -5.37%
O=C1c2oc3ccccc3c(=O)c2C(c2cccc(Br)c2)N1c1ccccn1 (stereo not drawn) -7.95%
Cc1ccccc1NC(=O)Nc1cccs1 -0.798%
CNC(=O)c1ccc(NC(=O)COc2ccc(-c3nn(C)c(=O)c4ccccc34)cc2)cc1 -17.8%
CCCCN(C)C(=O)Cn1cnc2sc(C)c(S(=O)(=O)N3CCN(c4ccccc4OC)CC3)c2c1=O -5.62%
Cc1ccc(OCC(=O)N(Cc2sccc2C)C2CCS(=O)(=O)C2)cc1 (stereo not drawn) -5.69%
Cc1ccc2onc(CC(=O)N3CCN(c4cccc(C)c4C)CC3)c2c1 7.52%
CCOc1ccc(NC(=O)Cn2c(CCC(=O)O)ccc2-c2ccc(C)cc2)cc1 1.23%
Clc1ccc(Nc2nc(-c3ccccc3)c3cc(Cl)ccc3n2)cc1 5.31%
COc1ccc(-c2noc(CSc3nnc(-c4ccncc4)n3-c3ccc(C)c(C)c3)n2)cc1 -4.81%
COc1cc(NC(=O)CC(C)S(=O)(=O)c2cc3c4c(c2)CCN4C(=O)CC3)cc(OC)c1 (stereo not drawn) 9.02%
Cc1ccccc1C(=O)Nc1cccc(C(=O)OCc2cc(=O)n3nc(C4CC4)sc3n2)c1 5.36%
COc1ccc(Cn2c(CO)cnc2SCC(=O)NCc2ccco2)cc1 -0.913%
Cc1ccc(C)c(CN2C(=O)c3ccccc3Sc3ccc(C(=O)NCc4ccc5c(c4)OCO5)cc32)c1 -9.86%
COc1ccc(NC(=O)c2c(NC(=O)c3cccc(C)c3)sc3c2CCCC3)cc1 -13.1%
COc1cc2nc(SCC(=O)Nc3cccc(C)c3)n3nc(-c4ccccc4)nc3c2cc1OC -17.6%
Cc1ccc([N+](=O)[O-])cc1S(=O)(=O)N1CCn2cccc2C1c1ccc(F)c(F)c1 (stereo not drawn) -1.94%
COc1ccc(-c2nc(Cn3c(SCc4ccc(F)cc4)nc4cccnc43)c(C)o2)cc1 -2.29%
CC(=O)c1cccc(NC(=O)c2ccc3nc(C(C)C)oc3c2)c1 -1.77%
CCOC(=O)c1cc(-c2ccc(OC)cc2)nn1Cc1ccccc1 -3.69%
Cc1ccc(CSc2nc3c(c(=O)[nH]2)C(c2cccc(F)c2F)CC(=O)N3)cc1 (stereo not drawn) -0.169%
Cc1ccc(C)c(Nc2nnc(-c3ccc(C)c(S(=O)(=O)N4CCCCC4)c3)c3ccccc23)c1 20.9%
COc1ccc(N2CCN(C(=O)c3nn(-c4ccc(C)cc4)c(=O)n(C)c3=O)CC2)cc1 -1.15%
COc1cc2ncc3c(-c4ccccc4)nn(-c4ccc(C)cc4)c3c2cc1OC 9.79%
CC(C)c1ccc(NC(=O)C(Cc2ccccc2)NS(=O)(=O)c2ccc3c(c2)CCC(=O)N3)cc1 (stereo not drawn) 1.53%
COc1cccc(CNC(=O)CN(C)S(=O)(=O)c2ccc3c(c2)c(=O)n(C)c(=O)n3C)c1 -4.34%
Cn1nnnc1SCCNCc1ccccc1Cl -18.3%
Cc1ccc(OCC(=O)Nc2ccc3nc(SCC(=O)N(C)c4ccccc4)sc3c2)cc1 -2.46%
COc1ccc(NC(=O)c2sc3nc[nH]c(=O)c3c2C)cc1OC -0.452%
N#C/C(=C\c1ccc(-c2ccc(C(=O)O)cc2)o1)c1nc2ccccc2[nH]1 -10.3%
COc1ccc(Cl)cc1NC(=O)Cn1cc(S(=O)(=O)Cc2cccc(Cl)c2)c2ccccc21 -9.49%
CCc1ccccc1Nc1nn2c(=O)c3ccc(C(=O)NCc4ccccc4Cl)cc3nc2s1 0.949%
CCCCOc1ccc(C(=O)N(Cc2nc(-c3ccc(Cl)cc3)no2)C(C)C)cc1 6.3%
Cc1ccc(Cn2c(C)c(CNCc3ccc(OC(C)C)cc3)c(C(=O)O)c2C)cc1 -3.35%
COc1ccc(CC(=O)NCCc2sc(-c3cccc(F)c3)nc2C)cc1 1.03%
CCOc1ccc(CCNC(=O)c2ccc(CS(=O)Cc3ccc(Cl)cc3)o2)cc1 (stereo not drawn) -7.07%
Cn1c(=O)oc2cc(S(=O)(=O)N3CCC(C(=O)N4CCN(c5cccc(Cl)c5)CC4)CC3)ccc21 -16.5%
CN1CCc2c(sc3c2C(=O)NC(c2ccc(OC(=O)c4ccc(Cl)cc4)cc2)N3)C1 (stereo not drawn) 3.51%
CC(=O)N1CCc2cc(Br)cc(S(=O)(=O)CCC(=O)NCCc3ccc(Cl)cc3)c21 1.47%
CCc1ccccc1Nc1sc(C(=O)c2ccccc2)c(N)c1S(=O)(=O)c1ccccc1 -8.12%
CCCCN(CC)C(=O)CSc1nc2c(sc3ccccc32)c(=O)n1CCc1ccccc1 -13.6%
CN(C)C(=O)c1ccc(S(=O)(=O)NCc2ccc(Cl)cc2)s1 22.8%
CCc1ccccc1NC(=O)Cn1c(=O)n(-c2ccc(C)cc2)c(=O)c2cc(OC)c(OC)cc21 -0.0262%
COC(=O)c1scc(-c2ccc(C)cc2)c1S(=O)(=O)N1CCN(c2cccc(Cl)c2)CC1 -5.08%
CCN(CCCNC(=O)Cn1ncc2c([nH]c3ccccc32)c1=O)c1cccc(C)c1 -3.68%
Cc1ccc(S(=O)(=O)c2nc(-c3cccs3)oc2N2CCC(C)CC2)cc1 -13.8%
Cn1c(=O)sc2cc(NS(=O)(=O)c3ccc(C(C)(C)C)cc3)ccc21 -0.025%
CC(=O)N1CCc2c(sc3c2c(=O)n(-c2ccccc2C)c(=O)n3CC(=O)Nc2ccccc2)C1 3.16%
Cc1c(C(=O)Nc2c(F)cccc2F)sc2ncn(Cc3ccccc3F)c(=O)c12 -4.18%
COc1ccc(C(=O)NCc2cn3ccc(C)cc3n2)cc1 -0.127%
CC(C)CC(=O)NC1CC(=O)N(c2ccc3c(c2)OCCO3)C1 (stereo not drawn) -8.83%
CCCCNC(=O)CSc1nc2cc3c(cc2c(=O)n1CCCC(=O)NCc1ccc(OC)cc1)OCO3 0.0373%
CN(Cc1ccccc1)c1nc2c(S(=O)(=O)c3cccc(Cl)c3)nnn2c2ccsc12 -0.234%
CCC1CN(S(=O)(=O)c2cc(-c3cc(C)no3)ccc2OC)c2cc(Cl)ccc2O1 (stereo not drawn) -8.8%
COC(=O)c1ccccc1NC(=O)NCc1ccc2c(c1)CCN2C(=O)c1ccccc1 -16.7%
O=C1CN(C(=O)c2ccc(S(=O)(=O)N3CCCC3)cc2)C(c2ccc(F)cc2)c2cc(Br)ccc2N1 (stereo not drawn) -16.4%
O=S(=O)(NCCc1csc2nc(-c3ccc(Cl)cc3)nn12)c1cccs1 -15.6%
Cc1ccc2c(c1)N(C(=O)N1CCC(C(=O)Nc3cccc(F)c3)CC1)CCO2 13.5%
O=c1c2oc3ccccc3c2n(Cc2ccccc2Cl)c(=O)n1Cc1ccc2c(c1)OCO2 3.4%
CCc1ccccc1NC(=O)CN(c1cc(C(F)(F)F)ccc1Cl)S(=O)(=O)c1ccccc1 -8.83%
COc1cc(Nc2nc3c(S(=O)(=O)c4ccccc4)nnn3c3ccc(Cl)cc23)cc(OC)c1 -0.3%
Cc1ccc2c(c1)N(C(=O)CCC(=O)NCc1ccccc1F)CC(C)O2 (stereo not drawn) -9.14%
O=C(COc1ccc(Cl)cc1)OCc1cc(=O)n2nc(C3CCCCC3)sc2n1 0%
Cc1cc(C)cc(NC(=O)[C@H]2O[C@@H]3OC(C)(C)O[C@@H]3[C@H]3OC(C)(C)O[C@H]32)c1 -2.1%
CCOC(=O)c1ccc2c(c1)N(Cc1cc(C)ccc1C)C(=O)c1ccccc1S2(=O)=O -2.97%
Cc1ccccc1C(=O)N1CCC(c2nc(-c3ccc(S(=O)(=O)N4CCCC4)cc3)no2)CC1 0.542%
Cc1ccsc1CN(Cc1ccco1)c1cnc(S(C)(=O)=O)nc1C(=O)Nc1ccc(Cl)cc1 -1.21%
Cn1c(=O)oc2cc(S(=O)(=O)CCC(=O)NCc3ccc(Cl)cc3)ccc21 8.96%
Clc1cccc(Nc2ncnc3c2nc2n3CCCCC2)c1 -7.87%
Cc1ccc(NC(=O)N2CC=C(c3c[nH]c4ccccc34)CC2)cc1Cl -14.5%
CC1CCN(C(=O)CN2CC(C)Sc3ccccc32)CC1 (stereo not drawn) 0.402%
COc1ccc(-c2cn3nc(SCC(=O)Nc4cccc(C)c4C)ccc3n2)cc1 -17.9%
CCOCCn1ccc2c(OCC(=O)Nc3cc(C)cc(C)c3)cccc2c1=O -0.904%
Cc1ccc(NS(=O)(=O)c2ccc(-n3cccn3)cc2)c(Br)c1 2.24%
Cc1cccc(C(=O)Nc2ccc(OCc3cc(=O)n4ccc(C)cc4n3)cc2)c1 -0.843%
COc1ccc(Nc2nc3ccccc3n3c(N)nnc23)cc1 -8.21%
CCCCN(C)C(=O)CCC(=O)NNc1nc2ccccc2c2nc(C)nn12 -5.64%
CCC(Nc1ccc(-c2nc(-c3ccccn3)no2)cc1[N+](=O)[O-])c1ccccc1 (stereo not drawn) -3.88%
COc1cc2c(cc1OC)C(COc1cc(C)cc(C)c1)N(C(=O)C(C)(C)C)CC2 (stereo not drawn) 4.9%
Cc1cccc(N2CCn3c2nc2c3c(=O)n(CCCc3ccccc3)c(=O)n2C)c1 -3.39%
COc1cc2c(C(=O)N(C)c3cccc(C(F)(F)F)c3)cn(CC(C)C)c(=O)c2cc1OC -16.4%
Cc1oc(-c2cccc(Cl)c2)nc1Cn1c(SCc2ccc(F)cc2)nc2cccnc21 -6.66%
Cc1ccc(C(c2sc3nc(-c4ccco4)nn3c2O)N2CCN(c3ccc(F)cc3)CC2)cc1 (stereo not drawn) 0.317%
O=C(CCCCCn1c(=O)c2sccc2n(CC(=O)Nc2ccccc2F)c1=O)NCc1ccc2c(c1)OCO2 -13.9%
CCC(C)OC(=O)/C(C#N)=C/c1ccc(-c2ccc(Br)cc2)o1 (stereo not drawn) 9.76%
COc1cc(CN(C(=O)COc2ccccc2)c2ccccn2)cc(OC)c1OC -0.563%
Cc1ccc(C2CC(=O)Nc3c2c(C)nn3-c2nc(C)cc(C)n2)c(C)c1 (stereo not drawn) -2.36%
Cc1cc2n(n1)CCCN2C(=O)Nc1ccccc1C(F)(F)F 1.88%
COC(=O)CN1C(=O)CSc2ccc(S(=O)(=O)Nc3ccc(C)c(Cl)c3)cc21 1.02%
O=C(Cc1ccc(-c2ccccc2)cc1)NCCS(=O)(=O)N1CCN(c2ccccc2F)CC1 0%
COc1cccc(NC(=O)C2CCCN(c3ncnc4onc(C)c34)C2)c1 (stereo not drawn) 4.06%
